Test results as given in the supplement of paper PMC8728848.
The list shows a part of the results.

Experiments:
Test in all cases: glycan array binding signal (z-score within array); higher = stronger binding
Details in all cases: glycan notation: IUPAC condensed, linker removed
[1] = target: Gal(b1-4)GlcNAc(b1-2)[Gal(b1-4)GlcNAc(b1-4)]Man(a1-3)[Gal(b1-4)GlcNAc(b1-2)[Gal(b1-4)GlcNAc(b1-6)]Man(a1-6)]Man(b1-4)GlcNAc(b1-4)GlcNAc
In short: (§1)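 Negative Z-scores can be read as non-binding. The Z-score is calculated within each array and then averaged across arrays of one protein sequence at different concentrations or buffers and across linkers. Arrays, 3228 in all, were curated from the Consortium for Functional Glycomics database and kept only where the protein sequence was available.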

[2] = target: Gal(b1-4)GlcNAc(b1-2)[Gal(b1-4)GlcNAc(b1-4)]Man(a1-3)[GlcNAc(b1-4)][Gal(b1-4)GlcNAc(b1-2)Man(a1-6)]Man(b1-4)GlcNAc(b1-4)GlcNAc
In short: as §1

[3] = target: Gal(b1-4)GlcNAc(b1-2)[Gal(b1-4)GlcNAc(b1-4)]Man(a1-3)[GlcNAc(b1-4)][Gal(b1-4)GlcNAc(b1-2)[Gal(b1-4)GlcNAc(b1-6)]Man(a1-6)]Man(b1-4)GlcNAc(b1-4)GlcNAc
In short: as §1

[4] = target: Gal(b1-4)GlcNAc(b1-2)[Gal(b1-4)GlcNAc(b1-6)]Man(a1-6)[Gal(b1-4)GlcNAc(b1-2)Man(a1-3)]Man(b1-4)GlcNAc(b1-4)GlcNAc
In short: as §1

[5] = target: Gal(b1-4)GlcNAc(b1-2)[Gal(b1-4)GlcNAc(b1-6)]Man(a1-6)[GlcNAc(b1-4)][Gal(b1-4)GlcNAc(b1-2)Man(a1-3)]Man(b1-4)GlcNAc(b1-4)GlcNAc
In short: as §1

[6] = target: Gal(b1-4)GlcNAc(b1-3)Gal(b1-3)GlcNAc
In short: as §1

[7] = target: Gal(b1-4)GlcNAc(b1-3)Gal(b1-4)Glc
In short: as §1

[8] = target: Gal(b1-4)GlcNAc(b1-3)Gal(b1-4)GlcNAc
In short: as §1

[9] = target: Gal(b1-4)GlcNAc(b1-3)Gal(b1-4)GlcNAc(b1-3)Gal(b1-4)GlcNAc
In short: as §1

[10] = target: Gal(b1-4)GlcNAc(b1-3)Gal(b1-4)[Fuc(a1-3)GlcNAc(b1-6)]Gal(b1-4)Glc
In short: as §1

[11] = target: Gal(b1-4)GlcNAc(b1-3)Gal(b1-4)[Fuc(a1-3)]GlcNAc(b1-3)Gal(b1-4)[Fuc(a1-3)]GlcNAc
In short: as §1

[12] = target: Gal(b1-4)GlcNAc(b1-3)GalNAc
In short: as §1

[13] = target: Gal(b1-4)GlcNAc(b1-3)[Gal(b1-4)GlcNAc(b1-6)]Gal(b1-4)GlcNAc
In short: as §1

[14] = target: Gal(b1-4)GlcNAc(b1-3)[Gal(b1-4)GlcNAc(b1-6)]GalNAc
In short: as §1

[15] = target: Gal(b1-4)GlcNAc(b1-3)[GlcNAc(b1-6)]Gal(b1-4)GlcNAc
In short: as §1

[16] = target: Gal(b1-4)GlcNAc(b1-6)Gal(b1-4)GlcNAc
In short: as §1

[17] = target: Gal(b1-4)GlcNAc(b1-6)Gal(b1-4)GlcNAc(b1-6)GalNAc
In short: as §1

[18] = target: Gal(b1-4)GlcNAc(b1-6)GalNAc
In short: as §1

[19] = target: Gal(b1-4)GlcNAc(b1-6)[Gal(b1-3)]GalNAc
In short: as §1

[20] = target: Gal(b1-6)Gal
In short: as §1

[21] = target: Gal3S(b1-3)GalNAc
In short: as §1

[22] = target: Gal3S(b1-3)GlcNAc
In short: as §1

[23] = target: Gal3S(b1-3)[Fuc(a1-4)]GlcNAc
In short: as §1

[24] = target: Gal3S(b1-4)Glc
In short: as §1

[25] = target: Gal3S(b1-4)Glc6S
In short: as §1

[26] = target: Gal3S(b1-4)GlcNAc
In short: as §1

[27] = target: Gal3S(b1-4)GlcNAc6S
In short: as §1

[28] = target: Gal3S(b1-4)[Fuc(a1-3)]Glc
In short: as §1

[29] = target: Gal3S(b1-4)[Fuc(a1-3)]Glc6S
In short: as §1

[30] = target: Gal3S4S(b1-4)GlcNAc
In short: as §1

[31] = target: Gal3S6S(b1-4)GlcNAc
In short: as §1

[32] = target: Gal3S6S(b1-4)GlcNAc6S
In short: as §1

[33] = target: Gal4S(b1-4)GlcNAc
In short: as §1

[34] = target: Gal4S6S(b1-4)GlcNAc
In short: as §1

[35] = target: Gal6S(b1-3)GlcNAc
In short: as §1

[36] = target: Gal6S(b1-3)GlcNAc6S
In short: as §1

[37] = target: Gal6S(b1-4)Glc
In short: as §1

[38] = target: Gal6S(b1-4)Glc6S
In short: as §1

[39] = target: Gal6S(b1-4)GlcNAc
In short: as §1

[40] = target: Gal6S(b1-4)GlcNAc6S
In short: as §1

[41] = target: GalNAc(a1-3)Gal
In short: as §1

[42] = target: GalNAc(a1-3)GalNAc
In short: as §1

[43] = target: GalNAc(a1-3)GalNAc(b1-3)Gal(a1-4)Gal(b1-4)Glc
In short: as §1

[44] = target: GalNAc(a1-3)GalNAc(b1-3)Gal(a1-4)Gal(b1-4)GlcNAc
In short: as §1

[45] = target: GalNAc(b1-3)Gal
In short: as §1

B1: BC2L-A (Burkholderia cenocepacia), Q1BKJ8_BURCA (protein)
chain: ADSQTSSNRAGEFSIPPNTDFRAIFFANAAEQQHIKLFIGDSQEPAAYHKLTTRDGPREATLNSGNGKIRFEVSVNGKPSATDARLAPINGKKSDGSPFTVNFGIVVSEDGHDSDYNDGIVVLQWPIG
[1]
  glycan array binding signal (z-score): -0.028
[2]
  glycan array binding signal (z-score): -0.219
[3]
  glycan array binding signal (z-score): -0.22
[4]
  glycan array binding signal (z-score): 0.336
[5]
  glycan array binding signal (z-score): -0.095
[6]
  glycan array binding signal (z-score): -0.299
[7]
  glycan array binding signal (z-score): -0.283
[8]
  glycan array binding signal (z-score): -0.284
[9]
  glycan array binding signal (z-score): -0.269
[10]
  glycan array binding signal (z-score): -0.219
[11]
  glycan array binding signal (z-score): -0.026
[12]
  glycan array binding signal (z-score): -0.271
[13]
  glycan array binding signal (z-score): -0.298
[14]
  glycan array binding signal (z-score): -0.223
[15]
  glycan array binding signal (z-score): -0.292
[16]
  glycan array binding signal (z-score): -0.3
[17]
  glycan array binding signal (z-score): -0.327
[18]
  glycan array binding signal (z-score): -0.255
[19]
  glycan array binding signal (z-score): -0.238
[20]
  glycan array binding signal (z-score): -0.22
[21]
  glycan array binding signal (z-score): -0.29
[22]
  glycan array binding signal (z-score): 0.002
[23]
  glycan array binding signal (z-score): 0.321
[24]
  glycan array binding signal (z-score): 0.214
[25]
  glycan array binding signal (z-score): -0.018
[26]
  glycan array binding signal (z-score): -0.245
[27]
  glycan array binding signal (z-score): -0.282
[28]
  glycan array binding signal (z-score): -0.211
[29]
  glycan array binding signal (z-score): -0.215
[30]
  glycan array binding signal (z-score): -0.296
[31]
  glycan array binding signal (z-score): 0.19
[32]
  glycan array binding signal (z-score): 0.198
[33]
  glycan array binding signal (z-score): -0.276
[34]
  glycan array binding signal (z-score): -0.292
[35]
  glycan array binding signal (z-score): -0.218
[36]
  glycan array binding signal (z-score): -0.215
[37]
  glycan array binding signal (z-score): -0.291
[38]
  glycan array binding signal (z-score): -0.287
[39]
  glycan array binding signal (z-score): -0.291
[40]
  glycan array binding signal (z-score): -0.3
[41]
  glycan array binding signal (z-score): -0.292
[42]
  glycan array binding signal (z-score): -0.156
[43]
  glycan array binding signal (z-score): -0.215
[44]
  glycan array binding signal (z-score): -0.219
[45]
  glycan array binding signal (z-score): -0.298
